The values below come from the supplement of paper PMC9446081.

Hit rate of the full screen: of about 39,000 compounds, about 220 (0.56%) showed activity. The list shows a part of the results.
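Further: static incubation at 37 °C against the wild-type strain, values averaged over two biological replicates.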

This assay has as its system Escherichia coli K-12 BW25113. In words: relative growth (OD600 normalised to plate interquartile mean) (fraction); higher = less growth inhibition, active = 0.2 or less. Conditions: 50 µM; LB; incubation time: overnight (16-24 h).
For `COc1cc(/C=C/C(=O)N2CCC=CC2=O)cc(OC)c1OCCOCCOCCOCCC(=O)OC(C)(C)C`, the relative growth is inactive: 0.988.
Consider `Cc1noc(C)c1S(=O)(=O)N(C)C[C@@H]1OCCCC[C@@H](C)Oc2ccc(NC(=O)Nc3ccccc3)cc2C(=O)N([C@@H](C)CO)C[C@@H]1C`, for which the relative growth was inactive: 1.01.
Under `NC(=O)c1cccc(C(N)=O)c1` stands inactive: 0.999; under `C[C@@H]1CN([C@H](C)CO)C(=O)c2cc(C#CCN(C)C)cnc2O[C@H]1CN(C)C(=O)Nc1cccc(F)c1`, inactive: 1.01; under `Cc1noc(C)c1NC(=O)N(C)C[C@@H]1Oc2ccc(NC(=O)NC(C)C)cc2CC(=O)N([C@H](C)CO)C[C@H]1C`, inactive: 0.97.
Under `C[C@H](CO)N1C[C@H](C)[C@@H](CN(C)S(=O)(=O)c2ccc(Oc3ccccc3)nc2)OCc2cn(nn2)CCCC1=O` stands inactive: 1.01; under `COc1ccccc1C#Cc1cnc2c(c1)C(=O)N([C@@H](C)CO)C[C@@H](C)[C@H](CN(C)C(=O)c1ccc3c(c1)OCO3)O2`, inactive: 1.02.
The value for `Cc1noc(C)c1S(=O)(=O)Nc1ccc2c(c1)C(=O)N([C@@H](C)CO)C[C@H](C)[C@H](CN(C)Cc1ccc(C(F)(F)F)cc1)OCCCC[C@@H](C)O2` was inactive: 1.04; that for `CC(C)NC(=O)Nc1ccc2c(c1)C(=O)N([C@H](C)CO)C[C@H](C)[C@@H](CN(C)S(=O)(=O)c1cn(C)cn1)OCCCC[C@@H](C)O2` was inactive: 0.981.
For `C[C@H]1CN([C@@H](C)CO)C(=O)c2cc(NC(=O)Nc3ccc4c(c3)OCO4)ccc2O[C@H]1CN(C)Cc1ccc(Oc2ccccc2)cc1`, the relative growth is inactive: 1.
Under `CC(C)NC(=O)N[C@@H]1C=C[C@@H](CC(=O)O)O[C@H]1CO` stands inactive: 0.981; under `Cc1ccc(S(=O)(=O)N(C)C[C@@H]2Oc3ccc(NS(=O)(=O)c4ccc(F)cc4)cc3CC(=O)N([C@@H](C)CO)C[C@@H]2C)cc1`, inactive: 0.996; under `COc1ccc(CN(C)C[C@H]2OCCCC[C@@H](C)Oc3ccc(NS(=O)(=O)c4ccccc4)cc3C(=O)N([C@@H](C)CO)C[C@@H]2C)cc1`, inactive: 0.989.
Under `C[C@@H]1CCCCO[C@H](CN(C)C(=O)Nc2ccc(C(F)(F)F)cc2)[C@@H](C)CN([C@@H](C)CO)C(=O)c2cc(NC(=O)c3ccccc3)ccc2O1` stands inactive: 1.02; under `O=C(C[C@H]1CC[C@H]2[C@@H](COC[C@H](O)CN2C(=O)Nc2cccc(Cl)c2)O1)NCCCN1CCOCC1`, inactive: 1.01; under `Cc1noc(C)c1NC(=O)Nc1ccc2c(c1)CC(=O)N([C@H](C)CO)C[C@H](C)[C@@H](CN(C)S(=O)(=O)c1cn(C)cn1)O2`, inactive: 1.
Turning to `O=C(O)c1ccc(Nc2cn[nH]c(=O)n2)cc1O`, the relative growth is inactive: 0.919.
Under `COCC(=O)Nc1ccc2c(c1)C(=O)N(C)C[C@@H](OC)[C@H](C)CN(C(=O)c1ccccc1F)[C@H](C)CO2` stands inactive: 0.99.
Under `Nc1nc(=O)c2nc(C(=O)O)cnc2[nH]1` stands inactive: 0.995.
The value for `CO[C@@H](C(=O)N(C)C[C@@H]1OCc2ccccc2-c2c(n(C)c3ccccc23)C(=O)N([C@H](C)CO)C[C@@H]1C)c1ccccc1` was inactive: 1.
As for `CN1C(=O)c2cc(NC(=O)C3CCOCC3)ccc2OC[C@H]2O[C@H](CC(=O)NCc3ccc4c(c3)OCO4)CC[C@H]21`, the relative growth was inactive: 0.992.
The value for `CC(C)NC(=O)Nc1cccc2c1O[C@H](CN(C)S(=O)(=O)c1ccccc1)[C@H](C)CN([C@H](C)CO)C2=O` was inactive: 0.988.
The value for `O=C(C[C@H]1CC[C@H]2[C@@H](COC[C@@H](O)CN2C(=O)c2ccc3c(c2)OCO3)O1)NCCN1CCCCC1` was inactive: 0.981; that for `C[C@@H]1CN([C@H](C)CO)C(=O)c2cc(C#Cc3ccccc3F)cnc2O[C@@H]1CN(C)S(=O)(=O)c1ccccc1` was inactive: 1.05.
For the compound `C[C@@H]1CCCCO[C@@H](CN(C)CC2CCCCC2)[C@@H](C)CN([C@@H](C)CO)C(=O)c2cc(NS(=O)(=O)c3ccccc3)ccc2O1`, the relative growth was inactive: 0.985.
Under `COc1ccc(CN(C)C[C@@H]2Oc3c(NC(=O)Nc4ccc(C(F)(F)F)cc4)cccc3C(=O)N([C@@H](C)CO)C[C@@H]2C)cc1` stands inactive: 0.971; under `COCC(=O)Nc1ccc2c(c1)[C@@H]1C[C@@H](CC(=O)N3CCOCC3)O[C@H](CO)[C@@H]1O2`, inactive: 1; under `O=C(O)CCC(=O)Nc1ccccn1`, inactive: 0.906.
The value for `C=CCOC(=O)[C@H]1[C@@H]2C(=O)O[C@@H](c3ccccc3)[C@@H](c3ccccc3)N2[C@@H](c2ccc(OCCOC(=O)[C@H]3C[C@H]4C(=O)N[C@@H](CC(C)C)C(=O)N4[C@H]3c3cccc(OCCO)c3)cc2)[C@]12C(=O)Nc1ccccc12` was inactive: 1.05.
Consider `COc1ccc(S(=O)(=O)Nc2ccc3c(c2)C(=O)N([C@@H](C)CO)C[C@@H](C)[C@@H](CN(C)C(=O)Nc2cccc4ccccc24)OCCCC[C@H](C)O3)cc1`, for which the relative growth is inactive: 1.03.
The value for `C[C@@H]1CCCCO[C@H](CN(C)C(=O)Nc2ccc(F)cc2)[C@@H](C)CN([C@@H](C)CO)C(=O)c2cc(NS(=O)(=O)c3ccc(F)cc3)ccc2O1` was inactive: 1.05; that for `C[C@@H]1CN([C@H](C)CO)C(=O)CCCn2cc(nn2)CO[C@@H]1CN(C)Cc1ccc(C(=O)Nc2ccccc2N)cc1` was inactive: 1.
The value for `C[C@H]1CN([C@@H](C)CO)C(=O)c2cc(C#CC3CCCC3)cnc2O[C@@H]1CN(C)C(=O)Cc1ccccn1` was inactive: 0.992.
The value for `Cc1ccc(S(=O)(=O)Nc2ccc3c(c2)CC(=O)N([C@@H](C)CO)C[C@@H](C)[C@H](CN(C)CC2CC2)O3)cc1` was inactive: 1.02; that for `O=C(C[C@@H]1CC[C@@H]2[C@H](COC[C@@H](O)CN2C(=O)c2ccc(F)cc2)O1)NCCCN1CCOCC1` was inactive: 1.03; that for `C[C@H](CO)N1C[C@H](C)[C@@H](CN(C)C(=O)NC2CCCCC2)Oc2ccc(NS(C)(=O)=O)cc2CC1=O` was inactive: 1.03.
In the case of `C[C@@H]1CN([C@@H](C)CO)C(=O)CCCn2cc(nn2)CO[C@H]1CN(C)S(=O)(=O)c1ccc2ccccc2c1`, the relative growth was inactive: 1.01.
As for `C[C@H]1CN([C@@H](C)CO)C(=O)Cc2cc(NS(=O)(=O)c3ccc(F)cc3)ccc2O[C@H]1CN(C)S(=O)(=O)c1ccc(F)cc1`, the relative growth was inactive: 0.986.
For `CN1C(=O)CC(C)(c2ccccc2)C1=O` (stereo unspecified), the relative growth was inactive: 1.1.
As for `C[C@@H]1CN([C@@H](C)CO)C(=O)c2cc(C#CC3(O)CCCC3)cnc2O[C@@H]1CN(C)C(=O)Nc1ccc2c(c1)OCO2`, the relative growth was inactive: 1.01.
Under `COc1ccc(S(=O)(=O)N(C)C[C@H]2Oc3ccc(NS(C)(=O)=O)cc3C(=O)N([C@H](C)CO)C[C@@H]2C)cc1` stands inactive: 0.999.
The value for `O=C(c1ccccc1O)N1CCOCC1` was inactive: 1; that for `NNC(=O)c1ccc2c(=O)[nH][nH]c(=O)c2c1` was inactive: 0.99; that for `C[C@@H]1CN([C@H](C)CO)C(=O)c2cccc(NC(=O)c3nc4ccccc4s3)c2O[C@@H]1CN(C)S(=O)(=O)c1cn(C)cn1` was inactive: 0.994.
Under `C[C@H]1CN([C@@H](C)CO)C(=O)c2cccc(NS(=O)(=O)c3cn(C)cn3)c2O[C@@H]1CN(C)CC1CCCCC1` stands inactive: 1; under `O=c1[nH]c(=O)n(Cc2ccccc2)c2nc[nH]c12`, inactive: 0.984; under `CN(C)C1C(O)=C(C(N)=O)C(=O)C2(O)C(O)=C3C(=O)c4c(O)ccc(Cl)c4C(C)(O)C3CC12.Cl` (stereo unspecified), active: 0.0595.
On to `Cc1ccc2c(c1)c1nc3ccccc3nc1n2Cc1ccccc1`, for which the relative growth is inactive: 1.01.
The value for `C[C@@H]1CN([C@@H](C)CO)C(=O)c2cc(NS(=O)(=O)c3cccs3)ccc2O[C@H]1CN(C)S(=O)(=O)c1cn(C)cn1` was inactive: 1.
The value for `COc1cccc(c1)CN1CC[C@]2(CC1)CN([C@H](CO)c1c2c2ccc(cc2n1C)OC)C(=O)Nc1ccc(cc1)F` was inactive: 0.997.
Under `C[C@@H]1CN([C@@H](C)CO)C(=O)c2cc(NS(=O)(=O)c3cn(C)cn3)ccc2O[C@H]1CN(C)S(=O)(=O)c1ccc(F)cc1` stands inactive: 0.98.
As to `Nc1nnc(N[C@H]2CCCCNC2=O)[nH]1`, the relative growth is inactive: 0.989.
Under `C[C@@H]1CN([C@H](C)CO)C(=O)c2cc(NS(=O)(=O)c3ccc(Cl)cc3)ccc2O[C@@H](C)CCCCO[C@@H]1CN(C)Cc1ccc(C(=O)O)cc1` stands inactive: 0.978; under `CC(=O)OC1CC2C(C)(C)C=CCC2(C)C2CCC3(C)C(c4ccoc4)OC(=O)C4OC43C12C` (stereo unspecified), inactive: 1.16; under `C[C@@H]1CCCCO[C@H](CN(C)C(=O)c2ccccc2)[C@H](C)CN([C@@H](C)CO)C(=O)c2cc(NC(=O)Nc3ccccc3)ccc2O1`, inactive: 0.99.
The value for `COCC(=O)N1C[C@@H](C)[C@@H](OC)CN(C)C(=O)c2cc(NC(=O)Nc3ccccc3)ccc2OC[C@H]1C` was inactive: 1.01; that for `COCC(=O)Nc1ccc2c(c1)C(=O)N(C)[C@H]1CC[C@H](CC(=O)N3CCc4ccccc4C3)O[C@H]1CO2` was inactive: 0.981.
Under `C[C@H](CO)N1C[C@H](C)[C@H](CN(C)Cc2ccc(Oc3ccccc3)cc2)Oc2c(NC(=O)Nc3ccccc3)cccc2C1=O` stands inactive: 1.05; under `CN1C(=O)c2cc(NS(C)(=O)=O)ccc2OC[C@@H]2O[C@H](CC(=O)N3CCOCC3)CC[C@H]21`, inactive: 0.891; under `CC(C)N1CC[C@@H](CN(C)Cc2ccc(C(=O)O)cc2)Oc2cc(-c3ccc(C(F)(F)F)cc3)ccc2S1(=O)=O`, inactive: 0.936.
Consider `C[C@H]1CN([C@@H](C)CO)C(=O)c2cc(NC(=O)CCCCCC(=O)Nc3ccccc3N)ccc2O[C@@H]1CN(C)C(=O)Nc1ccccc1`, for which the relative growth is inactive: 1.
